From PubChem BioAssay AID651820 (National Center for Advancing Translational Sciences (NCATS), 2012)
In all, about 340,000 compounds went through this assay and about 12,000 (3.5%) were called active. This list was built around the results that the source calls inconclusive (neither active nor inactive); the mix of calls is not that of the screen. Calls come from the whole dose curve; as a rule, active = well fitted inhibition curve with a large enough effect; inconclusive = small, poorly fitted or top-dose-only effect, or another doubt; inactive = no such curve, though single readings can be large or run the other way. Potencies of inconclusive entries are left out as doubtful fits.

test: qHTS Assay for Inhibitors of Hepatitis C Virus (HCV); conditions: Huh7.5.1 HCVcc-Cre (HCVcc is cell-culture hepatitis C virus) infection, luciferase reporter, 44 h; activity change, negative = inhibition: at 41.8 µM (top of the series) unless noted
Procedure, shortened: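 HCVcc-Cre virus at an moi near 0.5 was added right after compound to cells cultured 4 h from seeding (1,000 cells/well). Luciferase activity was determined 44 h later, 15 min after substrate addition at RT.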
% is set by controls: 0 for no effect and ±100 for the full control effect; potency is the fitted concentration of half-maximal effect; tags give direction and shape of the fitted curve.

Structure (SMILES) | Potency | activity change, negative = inhibition
COc1cc(N/C(N)=N/c2nc(C)cc(C)n2)c(OC)cc1Cl | inconclusive [inhibitor, partial curve] | –
FC(F)(F)c1cc(Oc2ccccc2Cl)nc(-c2ccccn2)n1 | inconclusive [inhibitor, single point] | –
COc1ccc(S(=O)(=O)N(Cc2nc3ccccc3c(=O)[nH]2)C2CCCC2)cc1 | inconclusive [inhibitor, partial curve] | –
CCOc1ccccc1NC(=O)C1CCCN(S(=O)(=O)c2ccccc2)C1 (stereo not drawn) | inconclusive [inhibitor, single point] | –
COc1cccc(/C=N/NC(=O)c2oc3nc(-c4ccccc4)cc(-c4ccco4)c3c2N)c1 | inconclusive [inhibitor, single point] | –
CCOC(=O)c1ccccc1NC(=O)c1c(F)c(F)c(F)c(F)c1F | active: 10 µM | –
Cc1ccc2c(CN3CC(C)CC(C)C3)cc(=O)oc2c1C (stereo not drawn) | inconclusive [inhibitor, full curve, poor fit] | –
O=C1c2ccccc2C(=O)N1CCCCN(C(=O)c1cc([N+](=O)[O-])cc([N+](=O)[O-])c1)c1ccc(Cl)cc1 | inconclusive [inhibitor, single point] | –
O=C(N/N=C/c1cc(Cl)cc([N+](=O)[O-])c1O)NC12CC3CC(CC(C3)C1)C2 | – | inactive: 24.6%
O=C(Cc1ccc(Cl)cc1)Nc1ccccc1C(=O)Nc1ccc(C(=O)O)cc1 | – | inactive: 12.9%
N#C/C(=C/c1ccc(-c2ccc(S(N)(=O)=O)cc2)o1)C(=O)Nc1ccccc1 | – | inactive: -26.8%
O=C(NCCCN1CCOCC1)c1cc(-c2ccc(Cl)c(Cl)c2)on1 | active: 12.6 µM | –
CCC1CSC(Nc2ccc(C(=O)/C=C/c3ccc(Oc4ccccc4)cc3)cc2)=N1 (stereo not drawn) | inconclusive [inhibitor, single point] | –
COc1cccc(CNC(=O)COC(=O)CNC(=O)c2ccc(-c3ccccc3)cc2)c1 | inconclusive [inhibitor, partial curve, poor fit] | –
COc1ccc(OC)c2[nH]c(=O)c(CCNC(=O)c3ccc(S(=O)(=O)N(C)C)cc3)cc12 | inconclusive [inhibitor, full curve, poor fit] | –
COc1ccccc1NC(=O)c1cc2cc(Br)ccc2cc1O | active: 11.2 µM | –
N#CCCN(Cc1cccnc1)C(=O)c1sc2cc(F)ccc2c1Cl | inconclusive [inhibitor, single point] | –
CC1=C(CO)C(=O)OC([C@@H](C)C2CC[C@H]3C4C[C@H]5O[C@]56[C@@H](O)C=CC(=O)[C@]6(C)C4CC[C@]23C)C1 (stereo partly drawn) | inconclusive [inhibitor, single point] | –
